Among all 48,000 compounds or so, about 120 (0.25%) were called active. About 4% were inconclusive and are not listed. Calls come from the whole dose curve; as a rule, active = well fitted activation curve with a large enough effect; inconclusive = small, poorly fitted or top-dose-only effect, or another doubt; inactive = no such curve, though single readings can be large or run the other way. This is one part of the list.
Assay: Primary qHTS for Identification of Small Molecule Activators of Huntingtin-Antisense Promoter Activity; note: nearly all actives have a fitted effect of over 55% in size
Conditions: HEK293 HTT-AS promoter firefly luciferase reporter (activity 0% = vehicle and -100% = no light), 24 h; series mostly up to 57.5 µM; activity change, positive = activation: at the top concentration
How it was run: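 Firefly luciferase readout (Dual-Glo, 10 min RT) after 24 h, 37 °C compound exposure (final up to 57.5 uM) of HEK293 reporter cells cultured 24 h beforehand; PTC124 at 50 uM final as control inhibitor; activity scaled vehicle 0%, zero RLU -100%.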

Activity change, positive = activation, inactive:
COc1ccc(CNC(=O)c2ccc(NC(=O)N3CCCCc4ccccc43)cc2)cc1 -27.7%
COc1ccc(CNC(=O)c2ccc(CS(=O)(=O)c3ccccc3OC)o2)cc1 -9.18%
CCN(CC)S(=O)(=O)c1ccc2c(c1)N(CC(=O)N1CCN(c3ccc(F)cc3)CC1)C(=O)CO2 -9.81%
Cc1ccc(C)c(-c2[nH]c3c(c2-c2c(-n4cccc4)n(C)c(=O)[nH]c2=O)c(=O)[nH]c(=O)n3C)c1 -5.44%
Cc1ccc(-c2nc(CCNC(=O)C(=O)Nc3ccc(C)cc3C)cs2)cc1 -7.06%
CCOc1ccc(CCNC(=O)Cn2nc(-c3ccc(C)cc3)ccc2=O)cc1OCC -13.1%
CCc1ccccc1NC(=O)C1=C(C)C(=O)OC12CCCCCC2 -20.1%
COc1cc(CN2CCN(S(=O)(=O)c3ccccc3)CC2)cc(OC)c1O 18.6%
O=C(CNS(=O)(=O)c1cccs1)N1CCN(c2cccc(C(F)(F)F)c2)CC1 -27%
CCc1ccc(-c2nc(CS(=O)CC(=O)NCCc3ccc(Cl)cc3)c(C)o2)cc1 (centres undefined) -15.3%
O=C1CCSC2(C(=O)N(Cc3ccc(F)cc3)c3ccccc32)N1c1ccc(F)c(F)c1 (centres undefined) -26%
CCNC(=O)CC1C(=O)N(c2cccc(OC)c2)C(=O)N1Cc1ccc(OC)c(OC)c1 (centres undefined) -15.2%
CCOc1ccc2oc(=O)cc(CN3CCN(C(=O)c4ccc(F)cc4)CC3)c2c1 -26.5%
Cc1c(C(=O)Nc2cccc(Cl)c2)oc2ccc(S(=O)(=O)N(C)C3CCCCC3)cc12 -26.5%
COc1cccc(NC(=O)Cn2c(=O)n(-c3ccc(C)cc3)c(=O)c3ccc(C(=O)NCc4ccco4)cc32)c1 -14.9%
Cc1nc2ncnn2c(C)c1CCC(=O)NCc1ccccc1Cl -10.8%
CCOc1ccccc1N(CC(=O)N1CCc2ccccc2C1)S(=O)(=O)c1ccccc1 -21.1%
CCOCc1ccccc1Nc1ncnc2onc(-c3ccc(Cl)cc3)c12 -4.64%
CCc1cccc(NC(=O)C(c2ccccc2)N2Cc3ccccc3C2=O)c1 (centres undefined) -23.9%
CCC(Sc1nncn2c1cc1oc(C)cc12)C(=O)Nc1ccc(F)cc1 (centres undefined) -19.1%
COCCn1c(=N)c(C(=O)NC(C)c2ccccc2)cc2c(=O)n3cc(C)ccc3nc21 (centres undefined) 0.877%
COc1ccc(CCNC(=O)C(=O)NCC(c2ccco2)S(=O)(=O)c2ccc(F)cc2)cc1 (centres undefined) -15.4%
COc1ccccc1OCC(O)CO (centres undefined) -4.14%
O=C(NCCCc1ccccc1)C1CCN(C(=O)N2CCOc3ccc(Cl)cc32)CC1 -30.5%
Cn1ccc2c(OCC(=O)Nc3cc(C(F)(F)F)ccc3Cl)cccc2c1=O -32.2%
CCOc1ccccc1NC(=O)CCn1nc(C)c(S(=O)(=O)N2CCCCC2)c1C -22.9%
COc1ccc(C2C=C(c3ccccc3)Nc3nc(NC(=O)/C=C/c4ccccc4)nn32)cc1 (centres undefined) -13.6%
CCN(CC)S(=O)(=O)c1ccc2c(c1)c(=O)c(C(=O)N1CCN(c3ccc(F)cc3)CC1)cn2C -13.1%
O=C(Cn1ncc2c3ccccc3n(Cc3cccc(Cl)c3)c2c1=O)NC1CCCCCC1 -1.26%
CCc1ccc(NC(=O)CSC2=Nc3ccccc3C3=NC(CC(=O)NCc4ccccc4)C(=O)N23)cc1 (centres undefined) -1.61%
CCN1CCSc2ccc(C(=O)NCc3ccc(OC)cc3)cc21 -5.23%
COC(=O)CCN(c1ccccc1)S(=O)(=O)c1cc(-c2cc(C)no2)ccc1OC -14%
CCCN(CCC)C(=O)c1c2c(nc3ccccc13)C(=O)N(C1CCCCC1)C2 -4.53%
Cc1cc(S(=O)(=O)C(CNC(=O)COc2ccc(Cl)cc2)c2cccs2)ccc1F (centres undefined) -14.6%
Cc1cc(=O)[nH]c(=S)[nH]1 3.57%
Cc1ccc(CCNC(=O)C2CCN(Cc3nc(-c4ccccc4C)oc3C)CC2)cc1 -29.6%
CCCN(C(=O)c1coc(=O)c2ccccc12)c1ccccc1C -14.9%
CCc1ccc(OCC2c3cc(OC)c(OC)cc3CCN2C(=O)COc2ccccc2)cc1 (centres undefined) -26.4%
Cc1ccc(N2C(=O)CSC23C(=O)N(CC(=O)Nc2ccc(C(C)C)cc2)c2ccccc23)cc1C (centres undefined) -12.1%
COc1ccc(-n2nc(C(=O)Nc3cccc(C)n3)c3c4ccccc4n(C)c3c2=O)cc1Cl -19%
CCOc1ccc(CCNC(=O)CCc2cn(Cc3ccc(F)cc3)c3ccccc23)cc1 -25.7%
COc1cccc(NC(=O)C(Cc2ccccc2)NS(=O)(=O)c2ccc3c(c2)oc(=O)n3C)c1 (centres undefined) -8.74%
Cc1coc2cc3oc(=O)c(CC(=O)NCCc4ccccc4)c(C)c3cc12 -4.69%
CCOc1ccc(NC(=O)Cn2cc(C(=O)c3ccco3)c3ccccc32)cc1 -5.52%
CCOc1ccc(CCNC(=O)c2cc3c(-c4ccc(OC)c(OC)c4)nn(C)c3s2)cc1OCC -51.5%
CCn1c(=O)cc(OCC(=O)Nc2cc(Cl)c(OC)cc2OC)c2ccccc21 -3.72%
Cc1cccc(N2CCN(S(=O)(=O)c3cc(C(=O)Nc4ccccc4Cl)ccc3F)CC2)c1C -31.8%
CCc1ccccc1NC(=O)CSc1nnc2ccc3ccccc3n12 -9.67%
COC(=O)c1cc2oc3ccccc3c2n1Cc1nc(-c2ccccc2C)oc1C -16.6%
O=C(CSCc1cc(=O)c2cc(F)ccc2[nH]1)Nc1ccccc1Cl -20.8%
CCC(C)NC(=O)CCc1c(C)nc2nc(-c3cc(OC)cc(OC)c3)nn2c1C (centres undefined) -7.2%
CC(C)(C)OC(=O)N1CCC(c2c(C(=O)NCCN3CCC(Cc4ccccc4)CC3)cnn2-c2ccc(F)cc2)CC1 -23.2%
Cc1ccc(NC(=O)[C@@H](c2ccccc2)N2Cc3ccccc3C2=O)cc1 -0.875%
COc1ccc(OC)c(CCNc2nc3ccccc3c3nc(-c4cccnc4)nn23)c1 -11.2%
Brc1ccc(-n2nc(-c3ccccc3)c3cnc4cc5c(cc4c32)OCO5)cc1 -2.99%
Cc1ccc2[nH]c(CSc3nnc(NC(=O)c4ccc(Cl)cc4)s3)cc(=O)c2c1 0.851%
CCOc1ccccc1NC(=O)Cn1c(=O)n(-c2cccc(C)c2)c(=O)c2c1c1cc(OC)ccc1n2C -2.38%
COc1ccc(C2C=C(c3ccccc3)Nc3nc(NS(=O)(=O)c4ccc(Cl)cc4)nn32)cc1 (centres undefined) -11.1%
O=C(Cn1c(=O)n(CC2CCC(C(=O)NCCc3ccccc3)CC2)c(=O)c2ccccc21)Nc1cccc(F)c1 (centres undefined) -19%
CC(=O)c1cc2c(cc1N/C(=N/S(=O)(=O)c1ccc(Br)cc1)c1ccccc1)OCO2 -17.1%
COc1ccc(C(=O)Cn2c(=O)c(-c3cc(C)ccc3NC(C)=O)nc3ccccc32)cc1 -28.2%
COC(=O)c1ccccc1NC(=O)N1CCc2c(sc3c2CCCC3)C1c1ccc(F)cc1 (centres undefined) 1.06%
Cc1ccccc1Cn1c(CN2CCCC(C)C2)nc2c1c(=O)n(C)c(=O)n2C (centres undefined) 15.2%
CCOc1ccc(C(=O)c2cn(CC(=O)Nc3ccc(Cl)cc3)c3cc4c(cc3c2=O)OCCO4)cc1 -30.8%
CCOc1ccc(Nc2nc(-c3c(C)nc4ccccn34)cs2)cc1 -37.2%
Cc1ccc(C)c(N2CCN(C(=O)c3noc4c3CCCCC4)CC2)c1 -24.4%
COc1cc(NC(=O)c2cc(S(=O)(=O)N3CCc4ccccc43)cn2C)cc(OC)c1OC -24.2%
Cc1ccc(C)c(CN2C(=O)c3ccccc3S(=O)(=O)c3ccc(C(=O)N4CCCCC4)cc32)c1 -6.81%
CC(=O)[C@H]1CC[C@H]2[C@@H]3C=CC4=CC(=O)CC[C@@]4(C)[C@@H]3CC[C@]12C -24.3%
COc1ccc(OC)c(NC(=O)c2cnn(-c3ccc(C)cc3)c2C2CCNCC2)c1 -1.96%
CCc1ccccc1N(C)C(=O)c1cc2c(=O)oc3ccccc3c2s1 -4.39%
CC(C)CC(=O)Nc1c(C(=O)N2CCN(c3ccccc3)CC2)oc2ccccc12 -16.2%
CCCCCOC(=O)Nc1nc(=O)n([C@@H]2O[C@H](C)[C@@H](O)C2O)cc1F (some centres undefined) 9.84%
COc1cc2c(=O)n(CCc3ccccc3)c(=O)n(CC(=O)Nc3ccccc3)c2cc1OC -35.1%
O=C(COc1ccccc1[N+](=O)[O-])N(Cc1ccco1)c1ccccn1 21.9%
O=C(C1CCC1)N1CCc2cc(S(=O)(=O)NCc3ccc(F)cc3)ccc21 -27.9%
COc1ccc(C)cc1NC(=O)N1CCCn2nc(C)cc21 -20%
COc1ccc(NC(=O)Cn2c(SCc3cc(C)ccc3C)nc3ccncc32)c(OC)c1OC -19.3%
COc1ccc2c(CNCc3cccs3)c(C(=O)O)n(Cc3ccccc3)c2c1 -18%
Cc1c(CCNC(=O)c2ccc(Br)o2)sc2nc(-c3ccc(F)cc3)nn12 -43.9%
CCOc1ccccc1NC(=O)Cn1cc(C(=O)c2cccc(OC)c2)c(=O)c2ccc(C)nc21 -33.8%
O=C(Cn1c(=O)c2cccn2c2ccccc21)NCCc1ccccc1 -6.36%
COc1cc(NC(=O)CN(c2ccc(C)cc2)S(=O)(=O)c2cccc3nonc23)cc(OC)c1 -12.2%
CCOc1ccccc1C(=O)Nc1ccc(S(=O)(=O)Nc2nc(C)cc(C)n2)cc1 -4.76%
CCc1cccc(NC(=O)CSC2=Nc3ccccc3N=C(c3ccc(F)cc3)C2)c1 -37.1%
Cc1ccc2nc(NC(=O)COc3ccc(F)cc3)sc2c1 1.16%
Cc1ccc(NC(=O)Cn2cnc3sc(C(=O)O)c(C)c3c2=O)cc1Cl -1.44%
O=C(CSc1nnc(CNC(=O)c2cccc(F)c2)n1-c1ccccc1)Nc1ccccc1F -19.5%
CCN1CCN(c2nc3c(S(=O)(=O)c4ccc(Br)cc4)nnn3c3ccsc23)CC1 -8.79%
CN[C@@H](C)C(=O)N[C@H]1CN(C(=O)CC(C)C)CC[C@H]2CC[C@@H](C(=O)NC(c3ccccc3)c3ccccc3)N2C1=O -31.8%
Fc1ccc(-c2noc3ncnc(NCCc4ccccc4)c23)cc1 -36.4%
COc1ccc(Nc2nc(-c3ccc(C)cc3)nc3ccccc23)c(OC)c1 -17.5%
CCCCCn1c(C(C)NC(=O)c2ccccc2)nc2ccccc21 (centres undefined) -20%
CCOc1ccc(-c2nonc2NC(=O)COc2c(C)cc(C)cc2C)cc1OCC -8.41%

Source: PubChem BioAssay AID1508624 (National Center for Advancing Translational Sciences (NCATS), 2021)
